About 4,700 (1.2%) of roughly 390,000 compounds were called active. This list was built around the results that the source calls inconclusive (neither active nor inactive); the mix of calls is not that of the screen. The call rests on the fitted dose curve; in most records, active means well fitted inhibition curve with a large enough effect; inconclusive means small, poorly fitted or top-dose-only effect, or another doubt; inactive means no such curve, though single readings can be large or run the other way. Where the call is inconclusive, the potency comes from a doubtful curve fit.
target: DNA polymerase eta (Homo sapiens) (UniProt Q9Y253); assay: qHTS for Inhibitors of Polymerase Eta; details: recombinant Pol eta, fluorescent DNA replication assay; series mostly up to 114 µM; activity change, negative = inhibition: at the top concentration
Sequence of UniProt Q9Y253 (Q9Y253 whole entry, looked up): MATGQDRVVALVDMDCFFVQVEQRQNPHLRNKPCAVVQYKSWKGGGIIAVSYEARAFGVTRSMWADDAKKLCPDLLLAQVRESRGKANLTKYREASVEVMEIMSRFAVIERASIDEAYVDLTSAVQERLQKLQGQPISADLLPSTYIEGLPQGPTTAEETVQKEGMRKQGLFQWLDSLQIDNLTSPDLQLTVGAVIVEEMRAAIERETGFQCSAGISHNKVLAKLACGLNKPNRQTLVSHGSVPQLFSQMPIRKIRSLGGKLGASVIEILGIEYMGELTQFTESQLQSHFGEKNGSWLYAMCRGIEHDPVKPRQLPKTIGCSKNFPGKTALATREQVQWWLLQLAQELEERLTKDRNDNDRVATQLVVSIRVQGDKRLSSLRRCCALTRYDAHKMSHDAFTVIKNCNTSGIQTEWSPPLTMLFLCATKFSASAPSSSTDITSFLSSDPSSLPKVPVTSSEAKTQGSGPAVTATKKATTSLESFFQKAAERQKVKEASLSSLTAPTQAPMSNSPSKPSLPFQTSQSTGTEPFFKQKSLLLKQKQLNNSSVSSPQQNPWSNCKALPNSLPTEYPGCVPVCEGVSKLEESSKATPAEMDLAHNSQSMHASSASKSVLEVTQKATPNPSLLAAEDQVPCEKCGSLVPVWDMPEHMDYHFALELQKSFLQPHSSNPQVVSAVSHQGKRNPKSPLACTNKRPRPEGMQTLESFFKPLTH
Outline: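 Pol eta at 10 nM preincubated with compounds 15 min at room temperature; reaction started with fluorescent substrate (50 nM final) and read kinetically at 0 and 10 min.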
On the % scale 0 is the no-effect control and ±100 the full control effect; potency means the concentration at half of the fitted maximal effect; tags describe the fitted curve by direction and shape.

SMILES | activity change, negative = inhibition | Potency
COc1ccc(CC(=O)Nc2sc(Cc3ccccc3)c(C)c2C(N)=O)cc1 | inactive: -6.32% | 
COc1ccccc1NC(=O)CSc1nnc2c3ccccc3n(C)c2n1 | inactive: -17.4% | 
COc1ccc(C(=O)COC(=O)c2ccc3c(c2)OCCO3)c(OC)c1 |  | inconclusive: 28.2 µM [inhibitor, partial curve, poor fit]
Cc1ccccc1Nc1nc(N)nc(COC(=O)CC2CC3CCC2C3)n1 (stereo unspecified) |  | inconclusive: 79.4 µM [inhibitor, partial curve, poor fit]
CCCCNC(=O)C(CC)(ONc1ccccc1C(F)(F)F)c1ccccc1OC (stereo unspecified) | inactive: -27.2% | 
O=C(COC(=O)c1ccc([N+](=O)[O-])o1)NC1CCCCC1 |  | inconclusive: 63.1 µM [inhibitor, partial curve, poor fit]
COc1ccc(NC(=O)c2ccco2)cc1NC(=O)C(C)Oc1ccc(Cl)cc1Cl (stereo unspecified) |  | inconclusive: 50.1 µM [inhibitor, partial curve, poor fit]
O=C(O)c1ccc(CS(=O)(=O)c2c(Cl)cccc2Cl)o1 |  | inconclusive: 25.1 µM [inhibitor, partial curve, poor fit]
O=C(Nc1ccc(F)cc1F)c1noc2c1CCC2 |  | active: 20 µM
Cc1ccccc1-n1sc2cc(F)ccc2c1=O | inactive: -11.3% | 
CCn1cc(C(=O)O)c(=O)c2cc(F)c(N/N=C/c3ccccc3[N+](=O)[O-])cc21 |  | active: 5.62 µM
O=C(Nc1nc(-c2ccc(Cl)s2)cs1)c1cccs1 |  | inconclusive: 63.1 µM [inhibitor, partial curve, poor fit]
Cc1oc2ccc(O)c(CN3CCOCC3)c2c1C(=O)Nc1ccc(C(C)C)cc1 | inactive: -22.5% | 
Clc1ccccc1CSc1nncn2c1cc1occc12 | inactive: -0.969% | 
N#C/C(=C/c1ccccc1)c1nn(CCO)c(N)c1C#N | inactive: -1.32% | 
Cc1noc(NS(=O)(=O)c2ccc(NC(=O)/C=C/c3ccc(Cl)cc3Cl)cc2)c1C | inactive: -16% | 
O=C(CN1CCCCCCC1)N/N=C/c1ccc([N+](=O)[O-])o1 |  | inconclusive: 56.2 µM [inhibitor, partial curve, poor fit]
CCCCN(CC)C(=O)c1c[nH]c2ccc(S(=O)(=O)Nc3cccc(OC)c3)cc2c1=O |  | inconclusive: 89.1 µM [inhibitor, single point]
O=C(N/N=C/c1ccco1)C1CC1c1ccccc1 (stereo unspecified) |  | inconclusive: 79.4 µM [inhibitor, partial curve]
COc1ccc(NC(=O)c2sc3nc(Cc4ccccc4)cc(C(F)(F)F)c3c2N)cc1OC |  | inconclusive: 79.4 µM [inhibitor, partial curve, poor fit]
Nc1ccc(C(CC(=O)O)n2cccc2)cc1 (stereo unspecified) |  | active: 25.1 µM
CCc1cccc(CC)c1N(COC)C(=O)Cn1c(C)nc2ccccc21 | inactive: -11.5% | 
NC(=O)c1ccc(SCC(=O)OCC(=O)N2CCN(C(=O)c3ccco3)CC2)c([N+](=O)[O-])c1 |  | inconclusive: 14.1 µM [inhibitor, partial curve, poor fit]

SMILES | activity change, negative = inhibition | Potency
O=c1c2ccccc2nc(-c2ccco2)n1-c1nc2ccccc2s1 |  | inconclusive: 35.5 µM [inhibitor, single point]
CCOC(=O)c1sc2ncnc(NCc3ccco3)c2c1C |  | inconclusive: 25.1 µM [inhibitor, partial curve, poor fit]
COc1cccc(CN(C(=O)c2ccco2)C2CCS(=O)(=O)C2)c1 (stereo unspecified) | inactive: 4.89% | 
O=C(COC(=O)COc1ccccc1)Nc1ncc([N+](=O)[O-])s1 |  | active: 10 µM
Cc1ccc(Cn2nc(C)c(/C=N/NC(=O)c3cccnc3)c2C)cc1 | inactive: -11.5% | 
COc1cccc(OC)c1-c1nn2c(-c3ccccc3Cl)nnc2s1 |  | inconclusive: 20 µM [inhibitor, single point]
O=C1c2ccccc2-c2onc3c(N4CCN(CCO)CC4)cc(N4CCN(C(=O)c5ccco5)CC4)c1c23 |  | inconclusive: 10 µM [inhibitor, full curve, poor fit]
Cc1cc(C)cc(C(N)=Nc2cccc(C#N)c2)c1 | inactive: -14.5% | 
COc1ccc(Nc2ncnc3onc(-c4ccc(Cl)cc4)c23)cc1Cl | inactive: -17.5% | 
O=C(NC1CCCCC1)c1sc(=S)n2c1[nH]c(=O)c1ccccc12 |  | active: 25.1 µM
COc1ccc(-c2nn(-c3ccccc3)cc2/C=N/Nc2ccc(Cl)c(C(=O)O)c2)cc1OC |  | inconclusive: 79.4 µM [inhibitor, partial curve]
O=C1COc2ccc(C(=O)COC(=O)/C=C/c3ccco3)cc2N1 |  | inconclusive: 44.7 µM [inhibitor, partial curve]
CCn1c(=NC(=O)c2ccc(N3C(=O)CCC3=O)cc2)sc2c(OC)ccc(OC)c21 |  | inconclusive: 35.5 µM [inhibitor, full curve]
COc1ccccc1Nc1nc(C)nc2c1oc1ccccc12 |  | inconclusive: 56.2 µM [inhibitor, partial curve, poor fit]
O=C1c2oc3ccccc3c(=O)c2C(c2cccc(O)c2)N1Cc1ccc(F)cc1 (stereo unspecified) | inactive: 0.57% | 
CCc1c(C)c(C#N)c2nc3ccccc3n2c1NCc1ccco1 |  | inconclusive: 22.4 µM [inhibitor, partial curve, poor fit]
COc1ccc(N(Cc2cccs2)C(=O)COc2ccc([N+](=O)[O-])cc2)cc1 | inactive: -24.8% | 
COc1ccc(C(=O)N2CCN(Cc3cc(OC)ccc3OC)CC2)cc1 |  | inconclusive: 100 µM [inhibitor, single point]
Nc1nc(Cl)nc2c1ncn2C1OCC(O)C(O)C1O (stereo unspecified) |  | inconclusive: 17.8 µM [inhibitor, partial curve, poor fit]
CCC1(C)Cc2c(sc3[nH]c(=O)[nH]c(=O)c23)CS1 (stereo unspecified) |  | inconclusive: 25.1 µM [inhibitor, partial curve]
O=[N+]([O-])c1ccc(N/N=C/c2ccc(O)c(O)c2O)c(S(=O)(=O)N2CCOCC2)c1 |  | inconclusive: 14.1 µM [inhibitor, full curve, poor fit]
CC(=O)c1ccc(OCC(=O)OCC(=O)c2ccc(S(=O)(=O)N3CCCCC3)cc2)cc1 | inactive: -13.4% | 
O=C(Nc1nnc(SCC(=O)N2CCOCC2)s1)C1CC(=O)N(c2ccc(F)cc2)C1 (stereo unspecified) |  | inconclusive: 79.4 µM [inhibitor, partial curve]

From PubChem BioAssay AID588591 (National Center for Advancing Translational Sciences (NCATS), 2011)
